Screen size: about 48,000 compounds; about 450 (0.94%) were called active. Inconclusive results (about 19%) are left out. Calls come from the whole dose curve; as a rule, active = well fitted inhibition curve with a large enough effect; inconclusive = small, poorly fitted or top-dose-only effect; inactive = no such curve, though single readings can be large or run the other way. This is one part of the list.
Potency is the fitted concentration of half-maximal effect.

The nature of this test: Primary qHTS for Identification of Small Molecule Inhibitors of Huntingtin Promoter Activity. Note: nearly all actives have a fitted effect of over 50% in size. To be noted: HEK293 HTT promoter firefly luciferase reporter (activity 0% = vehicle and -100% = no light), 24 h; series mostly up to 57.5 µM; activity change, negative = inhibition: at the top concentration. A digest of the protocol: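 HEK293 luciferase promoter-reporter cells (2,500/well) plated 24 h, then compounds added at up to 57.5 uM final for 24 h at 37 °C. Firefly luminescence by Dual-Glo, normalized to vehicle (0%) and zero RLU (-100%).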
As to `Cc1c(C(=O)NCc2cccc(Br)c2)oc2ccc3c(c12)C(=O)CC(C)(C)O3`, the “activity change, negative = inhibition” value is inactive: -8.56%. Still for that read-out and setting: with `CCN(CC)CCCNC(=O)c1ccc(Cn2c(SCc3ccccc3)nc3cccnc32)cc1` the figure was inactive: 24.1%.

Turning to `Cn1c(=O)n(Cc2c(F)cccc2Cl)c(=O)c2c1nc1n2CCN1c1ccc(F)cc1`, the “activity change, negative = inhibition” value was inactive: -1.17%. The same measure, in the same setting: with `Nc1nn(-c2ccccc2)nc1C(=O)OCc1ccc(Cl)cc1` the figure was inactive: 3.95%; with `COc1c(C)cccc1C(=O)Nc1ccc(-c2nc3ccccc3s2)c(Cl)c1`, inactive: -9.49%. Same read-out and setting: with `CC1=C(C(=O)NCc2ccccc2F)C2(CCCCC2)OC1=O` the figure was inactive: -10.7%; with `Cc1ccc(CCNC(=O)C2CCCN(c3nnc(C)c4c(C)n(-c5ccccc5)nc34)C2)cc1` (centres undefined), inactive: -1.91%.

For the compound `COc1ccc(-c2cn3nc(N4CCCC(C(=O)NCc5ccc(Cl)cc5)C4)sc3n2)cc1` (centres undefined), the “activity change, negative = inhibition” value was inactive: 37%. On the same count and under the same terms, with `O=C(Nc1ccccc1Cl)N1CCC(CN2CCCC2)CC1` the figure was inactive: -17.7%; with `COc1cccc(-c2nc(CS(=O)(=O)CC(=O)NCc3cccc(Cl)c3)c(C)o2)c1`, inactive: -13.8%; with `Cc1ccc(CSc2ncc(Cl)c(C(=O)Nc3nnc(C)s3)n2)cc1`, inactive: -19.7%. Still for that read-out and setting: with `COc1cc2ncc3c(-c4ccc(C)cc4)nn(-c4ccc(F)cc4F)c3c2cc1OC` the figure was inactive: 9.61%; with `CN(C)CCCNc1cc(N2CCN(C3CCCCC3)CC2)c2noc3c2c1C(=O)c1ccccc1-3`, inactive: -3.26%. The same measure, in the same setting: with `Cc1ccc(NC(=O)CN2C(=O)c3cccnc3Oc3ccc(Cl)cc32)cc1` the figure was inactive: -18.8%. In the case of `CCOC(=O)c1c(C)n(-c2ccccc2)c2ccc(OC(=O)COc3ccc(Cl)cc3)cc12`, the “activity change, negative = inhibition” value was inactive: -6.98%. Same read-out and setting: with `Cc1ccn2c(Nc3ccc4c(c3)OCCO4)c(-c3ccc(C)o3)nc2c1` the figure was inactive: 38.7%.

In the case of `Cc1cc(Nc2ccccc2C)n2nc(Cc3ccc(Cl)cc3)nc2n1`, the “activity change, negative = inhibition” value was inactive: -14.7%. Still for that read-out and setting: with `Cc1c(C(=O)NCc2ccccc2Cl)sc2ncnc(N(C)C3CCCCC3)c12` the figure was inactive: -38.5%; with `CCNC(=O)C1CCN(S(=O)(=O)c2ccc3c(c2)CCCN3C(C)=O)CC1`, inactive: -9.93%; with `CCOc1cc(C(=O)Nc2ccc(-c3cn4cccnc4n3)cc2)cc(OCC)c1OCC`, inactive: -18.2%. Same read-out and setting: with `O=C(NCc1ccccc1)c1ccc(NC(=O)N2CC3CCCN3c3ccccc32)cc1` (centres undefined) the figure was inactive: -21.5%; with `Cn1c(=O)oc2cc(S(=O)(=O)CCC(=O)N3CCN(c4cccc(Cl)c4)CC3)ccc21`, inactive: 30.3% [at 11.5 µM]. The same measure, in the same setting: with `Cc1ccc(S(=O)(=O)c2nnn3c2nc(NCc2ccc4c(c2)OCO4)c2sccc23)cc1C` the figure was inactive: -28.6%. For the compound `Cc1nc2ccccn2c(=O)c1NC(=O)c1ccc(F)c(F)c1`, the “activity change, negative = inhibition” value was inactive: 6.34%. In the case of `Cc1cccc(NC(=O)C2CCCN2S(=O)(=O)c2ccc3nc(-c4ccccc4)[nH]c3c2)c1` (centres undefined), the “activity change, negative = inhibition” value is inactive: -24.4%.

On to `Cc1ccc2c(c1)c1c(c(=O)n(-c3ccccc3)c(=O)n1CC(=O)NCC1CCCO1)n2C` (centres undefined), for which the “activity change, negative = inhibition” value is inactive: 1.21%. On the same count and under the same terms, with `O=c1n(Cc2ccccc2Cl)c2ccccc2c2nc(-c3ccccc3)nn12` the figure was inactive: 1.4%; with `Cc1nn2c(=O)cc(COC(=O)c3ccc(NC(=O)COc4ccc(C)c(C)c4)cc3)nc2s1`, inactive: -11%; with `COC(=O)C(C)Sc1ccc2nnc(CCNS(=O)(=O)c3ccc(C)cc3)n2n1` (centres undefined), inactive: -5.74%. For the compound `Cc1ccc(C)c(NC(=O)n2ncc3cc(Cl)ccc32)c1`, the “activity change, negative = inhibition” value is inactive: 20.3%. On the same count and under the same terms, with `Cc1ncc(CO)c2c1Oc1nc(-c3ccccc3Cl)nc(SCc3ccccc3F)c1C2` the figure was inactive: -29.4%. Same read-out and setting: with `COCCCNC(=O)Cn1cnc2sc(C)c(S(=O)(=O)N3CCC(C)CC3)c2c1=O` the figure was inactive: -8.85%. Still for that read-out and setting: with `CC(C)NC(=O)c1ccc(Cn2c(SCC(N)=O)nc3ccccc3c2=O)cc1` the figure was inactive: -1.74%.

For `COc1ccc2nc(N(Cc3cccnc3)C(C)=O)sc2c1`, the “activity change, negative = inhibition” value is inactive: -12.2%. On to `COc1cc(Cl)c(C)cc1Nc1nc2ccccc2c2nnc(C)n12`, for which the “activity change, negative = inhibition” value was inactive: 5.9%. The same measure, in the same setting: with `COC(=O)c1cc2oc(C)cc2n1Cc1ccc(Br)cc1F` the figure was inactive: 4.14%; with `COC(=O)c1ccc(NC(=O)CSc2ccc(-c3sc(-c4ccccc4)nc3C)nn2)cc1`, inactive: -4.93%; with `CCC(Oc1ccccc1-c1nnc(-c2ccccc2)o1)C(=O)Nc1ccc(C(C)=O)cc1` (centres undefined), inactive: -15%. Same read-out and setting: with `CCc1ccc(-n2c(=O)c3cccnc3n2CC(=O)NCc2ccccc2)cc1` the figure was inactive: -18.3%.

For `O=C(NC1CC(=O)N(c2ccc(F)cc2)C1)c1ccco1` (centres undefined), the “activity change, negative = inhibition” value was inactive: 19.8%. On the same count and under the same terms, with `COc1ccc(Nc2ncc3c(n2)CCN(Cc2ccccc2C)C3)c(OC)c1` the figure was inactive: -3.1%. As for `COC(=O)c1c(C)oc2ccc(N(C(=O)c3ccncc3)S(=O)(=O)c3ccc(OC)cc3)cc12`, the Potency was active: 2240 nM. For `O=C(Nc1cccc(C(F)(F)F)c1)c1ccc2c(c1)nnn2C1CCCC1`, the “activity change, negative = inhibition” value was inactive: -0.499%. Turning to `CCc1ccc(-n2c(=O)c3c4c(sc3n(Cc3ccccc3C#N)c2=O)CCC4)cc1`, the “activity change, negative = inhibition” value was inactive: -4.91%.

Regarding `COc1ccc(S(=O)(=O)NCCc2nnc3ccc(SCC(=O)Nc4ccccc4C)nn23)cc1`, the “activity change, negative = inhibition” value is inactive: -14.3%. Still for that read-out and setting: with `COc1ccc(-c2nc3sc(CCNC(=O)c4ccco4)c(C)n3n2)cc1` the figure was inactive: 33.6%; with `CCS(=O)(=O)Nc1ccc(-c2cn3ccsc3n2)cc1`, inactive: 67.3%.

`COc1cc2c(cc1OC)CN(C(=O)Nc1ccccc1)CC2`: the “activity change, negative = inhibition” value is inactive: -18.6%. As to `CN(C)c1ccc(CNS(=O)(=O)c2ccc(-c3cc(C(F)(F)F)on3)s2)cc1`, the “activity change, negative = inhibition” value is inactive: -5.2%.

For the origin of these results see PubChem BioAssay AID1508623 (National Center for Advancing Translational Sciences (NCATS), 2021).
